# Measurements: the supplement of paper PMC8728848
# The list shows a part of the results.
# How the values were obtained:
# Test in all cases: glycan array binding signal (z-score within array); higher = stronger binding
# Conditions in all cases: glycan notation: IUPAC condensed, linker removed
# [1] = target: Gal(b1-3)[Fuc(a1-4)]GlcNAc(b1-3)Gal(b1-4)[Fuc(a1-3)]GlcNAc
# Method in brief: (§1)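 Glycan array binding is given as a within-array Z-score, which can be read as non-binding when negative. The arrays, 3228 of them, came from the Consortium for Functional Glycomics database and were retained only where the protein sequence was available. Z-scores were averaged across arrays of the same protein sequence at different concentrations or buffers and across linkers.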
# [2] = target: Gal(b1-3)[Fuc(a1-4)]GlcNAc(b1-6)GalNAc
# Method in brief: as §1
# [3] = target: Gal(b1-3)[GlcNAc(b1-6)]GalNAc
# Method in brief: as §1
# [4] = target: Gal(b1-3)[Neu5Ac(a2-6)]GalNAc
# Method in brief: as §1
# [5] = target: Gal(b1-3)[Neu5Ac(a2-6)]GlcNAc(b1-4)Gal(b1-4)Glc
# Method in brief: as §1
# [6] = target: Gal(b1-3)[Neu5Ac(b2-6)]GalNAc
# Method in brief: as §1
# Gal(b1-4)Gal = target: Gal(b1-4)Gal
# Method in brief: as §1
# [7] = target: Gal(b1-4)GalNAc(a1-3)[Fuc(a1-2)]Gal(b1-4)GlcNAc
# Method in brief: as §1
# [8] = target: Gal(b1-4)GalNAc(b1-3)[Fuc(a1-2)]Gal(b1-4)GlcNAc
# Method in brief: as §1
# Gal(b1-4)Glc = target: Gal(b1-4)Glc
# Method in brief: as §1
# Gal(b1-4)Glc6S = target: Gal(b1-4)Glc6S
# Method in brief: as §1
# Gal(b1-4)GlcNAc = target: Gal(b1-4)GlcNAc
# Method in brief: as §1
# [9] = target: Gal(b1-4)GlcNAc(a1-6)Gal(b1-4)GlcNAc
# Method in brief: as §1
# Gal(b1-4)GlcNAc(b1-2)Man = target: Gal(b1-4)GlcNAc(b1-2)Man
# Method in brief: as §1
# [10] = target: Gal(b1-4)GlcNAc(b1-2)Man(a1-3)Man(b1-4)GlcNAc(b1-4)GlcNAc
# Method in brief: as §1
# [11] = target: Gal(b1-4)GlcNAc(b1-2)Man(a1-3)[Gal(b1-4)GlcNAc(b1-2)Man(a1-6)]Man(b1-4)GlcNAc(b1-4)GlcNAc
# Method in brief: as §1
# [12] = target: Gal(b1-4)GlcNAc(b1-2)Man(a1-3)[Gal(b1-4)GlcNAc(b1-2)Man(a1-6)]Man(b1-4)GlcNAc(b1-4)[Fuc(a1-6)]GlcNAc
# Method in brief: as §1
# [13] = target: Gal(b1-4)GlcNAc(b1-2)Man(a1-3)[Gal(b1-4)GlcNAc(b1-2)Man(a1-6)][Gal(b1-4)GlcNAc(b1-4)]Man(b1-4)GlcNAc(b1-4)[Fuc(a1-6)]GlcNAc
# Method in brief: as §1
# [14] = target: Gal(b1-4)GlcNAc(b1-2)Man(a1-3)[Gal(b1-4)GlcNAc(b1-2)Man(a1-6)][GlcNAc(b1-4)]Man(b1-4)GlcNAc(b1-4)[Fuc(a1-6)]GlcNAc
# Method in brief: as §1
# [15] = target: Gal(b1-4)GlcNAc(b1-2)Man(a1-3)[GlcNAc(b1-2)Man(a1-6)]Man(b1-4)GlcNAc(b1-4)GlcNAc
# Method in brief: as §1
# [16] = target: Gal(b1-4)GlcNAc(b1-2)Man(a1-3)[GlcNAc(b1-4)][Gal(b1-4)GlcNAc(b1-2)Man(a1-6)]Man(b1-4)GlcNAc(b1-4)GlcNAc
# Method in brief: as §1
# [17] = target: Gal(b1-4)GlcNAc(b1-2)Man(a1-3)[Man(a1-6)]Man(b1-4)GlcNAc(b1-4)GlcNAc
# Method in brief: as §1
# [18] = target: Gal(b1-4)GlcNAc(b1-2)Man(a1-6)Man(b1-4)GlcNAc(b1-4)GlcNAc
# Method in brief: as §1
# [19] = target: Gal(b1-4)GlcNAc(b1-2)Man(a1-6)[GlcNAc(b1-2)Man(a1-3)]Man(b1-4)GlcNAc(b1-4)GlcNAc
# Method in brief: as §1
# [20] = target: Gal(b1-4)GlcNAc(b1-2)Man(a1-6)[Man(a1-3)]Man(b1-4)GlcNAc(b1-4)GlcNAc
# Method in brief: as §1
# [21] = target: Gal(b1-4)GlcNAc(b1-2)[Gal(b1-4)GlcNAc(b1-4)]Man(a1-3)[Gal(b1-4)GlcNAc(b1-2)Man(a1-6)]Man(b1-4)GlcNAc(b1-4)GlcNAc
# Method in brief: as §1
# [22] = target: Gal(b1-4)GlcNAc(b1-2)[Gal(b1-4)GlcNAc(b1-4)]Man(a1-3)[Gal(b1-4)GlcNAc(b1-2)[Gal(b1-4)GlcNAc(b1-6)]Man(a1-6)]Man(b1-4)GlcNAc(b1-4)GlcNAc
# Method in brief: as §1
# [23] = target: Gal(b1-4)GlcNAc(b1-2)[Gal(b1-4)GlcNAc(b1-4)]Man(a1-3)[GlcNAc(b1-4)][Gal(b1-4)GlcNAc(b1-2)Man(a1-6)]Man(b1-4)GlcNAc(b1-4)GlcNAc
# Method in brief: as §1
# [24] = target: Gal(b1-4)GlcNAc(b1-2)[Gal(b1-4)GlcNAc(b1-4)]Man(a1-3)[GlcNAc(b1-4)][Gal(b1-4)GlcNAc(b1-2)[Gal(b1-4)GlcNAc(b1-6)]Man(a1-6)]Man(b1-4)GlcNAc(b1-4)GlcNAc
# Method in brief: as §1
# [25] = target: Gal(b1-4)GlcNAc(b1-2)[Gal(b1-4)GlcNAc(b1-6)]Man(a1-6)[Gal(b1-4)GlcNAc(b1-2)Man(a1-3)]Man(b1-4)GlcNAc(b1-4)GlcNAc
# Method in brief: as §1
# [26] = target: Gal(b1-4)GlcNAc(b1-2)[Gal(b1-4)GlcNAc(b1-6)]Man(a1-6)[Gal(b1-4)GlcNAc(b1-2)Man(a1-3)]Man(b1-4)GlcNAc(b1-4)[Fuc(a1-6)]GlcNAc
# Method in brief: as §1
# [27] = target: Gal(b1-4)GlcNAc(b1-2)[Gal(b1-4)GlcNAc(b1-6)]Man(a1-6)[GlcNAc(b1-4)][Gal(b1-4)GlcNAc(b1-2)Man(a1-3)]Man(b1-4)GlcNAc(b1-4)GlcNAc
# Method in brief: as §1
# [28] = target: Gal(b1-4)GlcNAc(b1-2)[Gal(b1-4)GlcNAc(b1-6)]Man(a1-6)[GlcNAc(b1-4)][Gal(b1-4)GlcNAc(b1-2)[Gal(b1-4)GlcNAc(b1-4)]Man(a1-3)]Man(b1-4)GlcNAc(b1-4)[Fuc(a1-6)]GlcNAc
# Method in brief: as §1
# [29] = target: Gal(b1-4)GlcNAc(b1-3)Gal(b1-3)GalNAc
# Method in brief: as §1
# [30] = target: Gal(b1-4)GlcNAc(b1-3)Gal(b1-3)GlcNAc
# Method in brief: as §1
# [31] = target: Gal(b1-4)GlcNAc(b1-3)Gal(b1-4)Glc
# Method in brief: as §1
# [32] = target: Gal(b1-4)GlcNAc(b1-3)Gal(b1-4)GlcNAc
# Method in brief: as §1
# [33] = target: Gal(b1-4)GlcNAc(b1-3)Gal(b1-4)GlcNAc(b1-2)Man(a1-3)[Gal(b1-4)GlcNAc(b1-3)Gal(b1-4)GlcNAc(b1-2)Man(a1-6)]Man(b1-4)GlcNAc(b1-4)GlcNAc
# Method in brief: as §1
binder,measurement,setting,value
PX9961A-pdi-456-24-456 (Parabacteroides distasonis) (protein) KTSSTQLPTIDAISSVADLTNAVNGVYEQQATEVGSYGAEFTLLADLRSGDFQSISTVNHAGPMYRYQTGKNDEMVYSFYKLFYNSLARLNNVLAAAENLEGADVDILKGELYAMRALYHFDLARVFAKLPSTTDMNDLGIVLSTEVYPTDYIGTRATLQQTYDQILKDIETALPLLSKDKQTGHINYWGALAIRARAYLYLEKNKEALADCKEIIASSPYKLYTRDEYIGAWDKEGTNEAIFEILVTPNYNAQRNSIGYFTHASGYGECAATESFLEELAKHPGDIRTELFAKETDNGYDGTYPQKYKGRDGQIYVNNPKVVRLSEVYLIAAEAALKAGDTSAAAGYMNTLRKNRIENYTDVASITLDDILLERRLELFTEGHTAWDAWRNGKSVNNKFVGEVKPGDYRTIMAIPIGEITVSRGQLIQNPGY,glycan array binding signal (z-score),[1],0.361
same,glycan array binding signal (z-score),[2],0.334
same,glycan array binding signal (z-score),[3],0.072
same,glycan array binding signal (z-score),[4],-0.243
same,glycan array binding signal (z-score),[5],-0.197
same,glycan array binding signal (z-score),[6],-0.243
same,glycan array binding signal (z-score),Gal(b1-4)Gal,-0.408
same,glycan array binding signal (z-score),[7],-0.34
same,glycan array binding signal (z-score),[8],-0.317
same,glycan array binding signal (z-score),Gal(b1-4)Glc,-0.498
same,glycan array binding signal (z-score),Gal(b1-4)Glc6S,0.231
same,glycan array binding signal (z-score),Gal(b1-4)GlcNAc,-0.072
same,glycan array binding signal (z-score),[9],-0.465
same,glycan array binding signal (z-score),Gal(b1-4)GlcNAc(b1-2)Man,0.697
same,glycan array binding signal (z-score),[10],-0.263
same,glycan array binding signal (z-score),[11],0.262
same,glycan array binding signal (z-score),[12],0.395
same,glycan array binding signal (z-score),[13],0.133
same,glycan array binding signal (z-score),[14],0.085
same,glycan array binding signal (z-score),[15],-0.158
same,glycan array binding signal (z-score),[16],-0.027
same,glycan array binding signal (z-score),[17],0.546
same,glycan array binding signal (z-score),[18],-0.264
same,glycan array binding signal (z-score),[19],-0.302
same,glycan array binding signal (z-score),[20],-0.241
same,glycan array binding signal (z-score),[21],-0.052
same,glycan array binding signal (z-score),[22],-0.394
same,glycan array binding signal (z-score),[23],0.503
same,glycan array binding signal (z-score),[24],-0.446
same,glycan array binding signal (z-score),[25],0.225
same,glycan array binding signal (z-score),[26],2.12
same,glycan array binding signal (z-score),[27],0.206
same,glycan array binding signal (z-score),[28],-0.001
same,glycan array binding signal (z-score),[29],-0.575
same,glycan array binding signal (z-score),[30],0.087
same,glycan array binding signal (z-score),[31],-0.107
same,glycan array binding signal (z-score),[32],-0.507
same,glycan array binding signal (z-score),[33],2.2
